Measurements reported in PubChem BioAssay (NCATS).
Some of the results follow. These are further read-outs of the screen, such as a control signal, another cell line or another target. No call is given for them. The list favours compounds with an active or inconclusive main result. The note in brackets gives the kind of curve behind each potency; many fits are weak.

Assay: qHTS Assay for Lipid Storage Modulators (AID 1519)
Conditions: Drosophila S3 cells, BODIPY lipid droplet/cell ratio, laser cytometry, cells loaded with oleic acid; for AC50: measured here: lipid (BODIPY) channel AC50
Procedure, shortened: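 Cells seeded at 5,000 per well were treated with compounds over a concentration series and loaded with oleic acid (400 uM, as added). Lipid droplet fluorescence (488 nm excitation, 500-530 nm channel) was read by laser-scanning cytometry and normalized to 20 uM Triacsin C.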

[1] = measured here: cell count channel max response
[2] = measured here: lipid channel max response
Tags give direction and shape of the fitted curve.

Row | Compound | max response [1] [%] | AC50 | max response [2] [%]
1 | Cn1cc(-c2nc3cnc(Oc4cccc(Cl)c4)nc3n(C3CC3)c2=O)c2ccccc21 | -2.82 | 0.0891 µM [falling, full curve, poor fit] | -6.99
2 | Cc1nc2cnc(Oc3ccccc3)nc2n(CCC#N)c1=O | 29.6 | 0.891 µM [rising, full curve] | 36.8
3 | O=C(c1csnn1)N1CCC[C@@]2(CCN(c3ccncc3)C2)C1 | 23.7 | 14.1 µM [rising, single point] | 32.4
4 | COCCn1c(=O)c(-c2cn(C)c3ccccc23)nc2cnc(OCc3ccccc3)nc21 | 16.9 | 0.355 µM [rising, full curve, poor fit] | 17.5
5 | CCCN(CCC)CCc1cccc2c1CC(=O)N2 | 28 | 39.8 µM [rising, single point] | 33.5
6 | CC(C)(C)c1ccc([C@@H](O)CCCN2CCC(C(O)(c3ccccc3)c3ccccc3)CC2)cc1 | -29.4 | 15.8 µM [falling, single point] | -54.2
7 | COC(=O)N1CCC2(CCCN(c3cccc(-c4ccccc4)c3)C2)CC1 | 1.17 | 39.8 µM [falling, single point] | -93.3
8 | O=S(=O)(c1ccccc1)N1CCC2(CC1)CN(Cc1nccs1)C2 | 22.9 | 0.501 µM [rising, partial curve, poor fit] | 30.1
9 | c1cncc(CNc2ncnc3ccc(-c4ccoc4)cc23)c1 | 19.7 | 5.62 µM [rising, full curve, poor fit] | 22.9
